The source holds several records for some structures; these can differ, active in one and inactive in another.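 Compound tested at a single concentration for 48 hours in 96-well plates; a percent growth value below 10 was scored as active.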 Certain results were filed several times, with different values. The list is limited to them. The source may hold further records. This drug was run again and again over the years, at its own concentration, as given; each value is one run. Brackets with × stand for listed records that agree.
Experiments:
Assay in all cases: NCI-60 one-dose screen, 48 h (100 = growth as untreated, 0 = no growth, -100 = all killed)
SNB-75 CNS = conditions: 2.5 mM; runs of 2000
SNB-19 CNS = conditions: 2.5 mM
U251 CNS = conditions: 2.5 mM

For `O=c1[nH]cc(F)c(=O)[nH]1`, the growth (SNB-75 CNS) was “active: -1.28, -39.2, 4, -27.1%”, the growth (SNB-19 CNS; runs of 1991) was “inactive: 26.4, 35.2, 40.9, 34.1, 32.1, 41.4, 38.1, 41.8, 29.3, 28.7, 32, 51.3, 28.5, 38.7, 22.2, 39.3, 27.5, 36.9, 29.5, 42.5%” and the growth (SNB-19 CNS; runs of 1992) was “inactive: 36 (2×), 30.6 (2×), 48.5, 55.2, 24, 43.1, 46.1 (2×), 30.2 (2×), 34.7, 35.2, 44.6, 47.9, 57.4, 53.9, 31.5, 21.8, 38 (3×), 43.7, 35.1, 53.7, 27.1 (2×), 42.3, 52, 55.5, 45.8, 51.7, 54.5, 41.8, 33.1 (2×), 44.9, 41.2, 40.6, 33.6 (2×), 33.4, 37.7, 33.7, 40.9, 40.2, 36.8, 42.8, 23.4, 35.9, 27.7, 32.8 (3×), 43, 34.3 (2×), 29.3 (2×), 34.5, 38.5, 56.2, 23.3 (2×), 23.7, 29.1 (3×), 26.5, 36.5, 51.5, 42.4, 19.6, 48.9, 47, 48.1, 36.9, 62, 48.7, 26.6, 27.8, 21.3, 45, 40.8, 38.3, 38.1, 34, 44.7 (2×), 29.7, 31.1, 29.8, 37.5, 26.8, 38.4, 35.7, 30.1, 30.5 (2×), 27.6, 47.8, 36.1, 32.7, 46.2, 20.9, 41, 42.1, 32.5, 36.2, 15.4, 42.9, 11.8, 31.7% and active: -2.76%, -0.274%, -1.47%”. For the same molecule, the growth (SNB-19 CNS; runs of 1993) was “inactive: 43.9, 35.3 (2×), 10.6, 31.7 (3×), 40.4 (2×), 33.1 (2×), 39.7, 22.5, 27.4 (3×), 34.1 (2×), 26.9, 43.4, 44.1, 30, 40.5 (2×), 35, 41.2, 48.5, 37.4, 32.9, 42.8, 33, 35.6, 36.4, 39.6, 35.7, 29.1, 31.6, 37.9, 45.7, 45.2, 105, 43 (2×), 38.4, 89.5, 38.1, 34.6, 45.4, 35.8, 47.3, 23.7%”, the growth (SNB-19 CNS; runs of 1994) was “inactive: 45.9, 49.1, 45.3, 35.2, 28.4, 34.3, 20.1, 35.5, 59.4, 52.9, 39.8 (2×), 40.9, 52.6, 29.2, 58.1, 38.4, 43.1, 27.9, 36.7, 24.4, 43.2, 33.6, 17.3, 45.8, 45.2, 30.7, 13.6, 22.8, 58.7, 13, 27.4, 15.9%” and the growth (SNB-19 CNS; runs of 1995) was “inactive: 31.8, 27.2, 23.3, 22.2, 45.6, 29.8, 33, 45.2, 30.9, 35.7, 27.3, 26.8, 33.5, 30, 33.6, 36.1, 32.6, 24.3, 30.3, 33.2, 37, 12.4, 45.1, 35.2, 26.6, 31.2, 42.1, 35.5, 29.7, 44.3, 52.7, 32.1, 36, 30.7, 21.2% and active: -7.3, -14.4, 8.3, 6.08%”. The growth (SNB-19 CNS; runs of 1996) was “inactive: 30 (2×), 40, 28.2, 33.4, 33.1, 24.8, 31.3, 30.3, 38.9, 25.8, 46.6, 40.8, 36, 34.4, 24.2, 23.8, 33.9, 26.5, 51.6, 14.5, 40.7, 42, 39.6, 31.4, 38.8 (2×), 26.6, 37.9, 39.8, 46.7, 48.8, 46.3, 22.6, 41.3, 32.4, 29.7, 31.9, 33.8, 20.8, 44.2, 45.8, 47.2, 37.6 (2×), 40.3, 42.1, 34.2, 17.4, 54.7, 32.8, 24, 32.7, 14.8, 48.6, 27.4% and active: -9.52%, 5.44%”, the growth (SNB-19 CNS; runs of 1997) was “inactive: 23.3, 28.6, 42.5, 92.3, 22.5, 26, 30.7, 38.6, 50.7 (3×), 34.9, 26.6, 47.1, 10.2, 43.8, 41.4, 39.2, 20.4, 46.9, 31.9, 41.3, 22.4, 39.7, 32.4, 32, 10.1, 47.5, 35.1, 40.4, 41.9, 23.8, 31.5, 30.9, 16.9, 35.3, 37.8, 27.1, 16.2% and active: 4.21, -19.3, 5.81, -22.9, 9.22%” and the growth (SNB-19 CNS; runs of 1998) was “inactive: 37.2, 30.3, 55.7, 15.6, 32.6, 33.6, 37.1, 31.9, 15.1, 23, 10.4, 32.5, 23.9, 24.1, 26.2, 52, 35, 47.1, 57.2, 20.2, 29.9, 27.3, 32.7, 41% and active: 7.28%, 1.43%”. The growth (SNB-19 CNS; runs of 1999) was “inactive: 32.8, 39.4, 34.7, 42.6, 34.9% and active: -45.4, -81.2, 4.53, 1.37, -20.2, 3.3, 4.52, 0.555, -34, 0.482, -100, 1.21%”, the growth (SNB-19 CNS; runs of 2000) was “active: 0.633, 2, 1.7, 0.626%” and the growth (U251 CNS; runs of 1991) was “active: 5.36, 3.51, 9.03, 2.15% and inactive: 29.6, 31.1, 21.6, 27.1, 10.1, 15.4, 12.6, 32.6, 19.4, 13.8, 33.3, 21.5, 33, 22.9%”. The growth (U251 CNS; runs of 1992) was “inactive: 23.4, 26.9, 24.4, 31.3, 19, 30.6, 24.7, 21.2, 27.9, 25.9, 41.4, 16.8, 20.4 (2×), 16.7, 31.6, 63.4, 11.2, 18.5 (3×), 15.5, 13.4, 34.8, 25.7 (3×), 16 (2×), 18.9, 22.8, 12.9, 35.5, 21.4, 14.2, 20, 16.5, 11.3, 26.5, 29.7, 19.4 (2×), 20.5, 16.9, 13, 10.6, 35, 29.3, 24.9, 24.5 (2×), 23.3 (2×), 37.9, 26.6 (2×), 29.9, 30.1, 19.8, 25.3, 22.4, 12.6, 23.5, 10.5, 17.5, 27.1 (2×), 11.7 (2×), 23.7 (2×), 25.5, 28.1, 22.7, 29, 13.6, 14.6, 21.7, 23.6, 20.6, 23, 16.1, 15.3, 30.4, 38.4, 18.3, 23.1, 26.8% and active: 4.13, 7.16, 9.09, -7.75, 5.52, -43.6, 9.83, -3.09, 9.84, 8.69, -5.07, 6.52, -12.7, -1.43, 2.35, 6.8, 1.05, -12.8, 3.8, 9.71, 1.57, -10, 8.98, 5.68, -4.67, 7.74, -4.11, 9.14, 6.31%”, the growth (U251 CNS; runs of 1993) was “inactive: 11.5, 25.8, 25.6, 29.4, 26.9 (2×), 20.4, 86.3, 26.2, 34.4, 23.4, 18.3, 26.6, 32, 17.4, 19.6, 24.4, 16.1, 22, 23, 27.9, 33.6, 28, 11.7, 26.3 (2×), 13.4, 14.2, 16.8, 24.1 (3×), 32.7, 21.6, 98.3, 52.9, 25.7, 71.2, 33.2, 19.5, 23.5, 36, 23.3, 30.2, 31.8, 31.7% and active: 5.72%, 6.11%” and the growth (U251 CNS; runs of 1994) was “inactive: 31.7, 13.7, 23.7, 22.2, 15.5, 26.3, 16.5, 24.1, 20.9, 20.8 (2×), 30.3, 24.5, 13.6, 23.6, 28.4, 24.8, 32.8, 14, 25.1, 24.7, 21.9, 24.6, 27.8, 34.1, 28.9, 28.1, 20.4, 28.8% and active: 3.11%, 5.68%”.

— PubChem BioAssay (NCI)
